# ± gives the standard deviation of the averaged measurements. The list shows a part of the results.
# System: PfAP2-I AP2 domain 3 (GST-tagged)
# Test: gcPBM binding intensity (ln(normalized median fluorescence intensity)); higher = stronger DNA binding
# How it was run: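 Binding of GST-tagged P. falciparum DNA-binding domains, expressed in E. coli and used at about 25 μg on average, was carried out for 1 h in 1× PBS containing 1% milk, 0.2 mg/ml BSA, 0.5% salmon testes DNA and 0.03% Triton X-100. The target was an Agilent 4 × 180k array of primer-extended double-stranded 36-bp intergenic genomic probes plus negative controls, read with Alexa488 anti-GST antibody at 488 nm. Binding intensity is the highest Masliner-normalised natural-log median intensity across replicate spots of either probe orientation.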
row,Sequence,gcPBM binding intensity (ln)
1,TTAAGAATATCTACATGTACATACCAAAGAAATACA [XGTACX_site3125],7.92 ± 0.38
2,ATGAACAAAATGTAATGTACGAATAATTATTCATAT [XGTACX_site4812],7.79 ± 0.5
3,GGAATAATATAAAACACACACATAAATATAAATATA [CACACA_site3376],7.72 ± 0.61
4,TAATTTTTTTTTTTTTTTTTTTTTTTTTTTTTCCTT [CACACA_negctrl_site1095],7.33 ± 0.49
5,TAATTTTTATTTATAATAATATATGACATATATCCA [XGTACX_negctrl_site359],7.44 ± 0.42
6,AAAAAAAAGTTCTACACACACAAAAAAATATTTTTT [CACACA_site2309],7.6 ± 0.59
7,TATAGACAAACACATACATGCATACATACATACATA [TGCATGCA_site273],8.21 ± 0.57
8,GTGTGCTTTTTACGAGTGCAAGTATTTTGGTGGTTA [GTGCAC_site9496],9.88 ± 0.2
9,GTACACATATAATATACACACAACAAATATGCACAT [CACACA_site1010],10.05 ± 0.021
10,ATGATCATAAGACACACACACAAAAAAAAAAAAAAA [CACACA_site6936],8.12 ± 0.26
11,CATATATATATATATTGTACAAGATTGTTTTTTTAT [XGTACX_site3913],7.88 ± 0.34
12,TCTGTGCACGCATGAAGTACAAAAAAGGTTTCCAGT [XGTACX_site5049],9.895 ± 0.092
13,CTATATACTAAATGCACACTTATATATTTATATATA [CACACA_site2454],10 ± 0.37
14,TATATTTTTTTAATATGTACATATATATATAAAACA [XGTACX_site2171],7.88 ± 0.16
15,TGAATTATAAATTATAGTACTTTATAATATGAACAT [XGTACX_site2317],7.64 ± 0.42
16,ATATATAATAAATACACACACATGTATTTATAAATA [CACACA_site5135],7.79 ± 0.62
17,ATATAAATAAATTAGTGAAAAAAAAAAAATTTTTTT [CACACA_negctrl_site945],7.49 ± 0.82
18,AATTAACAAAGACACACACACACACGCACAAAAAAA [CACACA_site6388],8.41 ± 0.47
19,TTTAAAAAAATATATACACACATATATATATATATA [CACACA_site617],9.44 ± 0.41
20,CTCCATATGAAACACACACACAAATGAAAAAAATAT [CACACA_site3018],8.1 ± 0.54
21,ATAGAAATAAAATAAAATAAAAAAAAAATAATGAAA [CACACA_negctrl_site1565],7.46 ± 0.59
22,GTCAACTTGTGATAAGTGCATATATATAATAAAATG,9.875 ± 0.078

row,Sequence,gcPBM binding intensity (ln)
1,CGAAATAAATCTTATGCACACAAATAATTAATTAAA [CACACA_site8491],9.14 ± 0.26
2,AAAAAAATATAATATTTGAATAAATATAATAATATG [XGTACX_negctrl_site477],7.33 ± 0.42
3,AATATATAGGTATTTACACACAATGTGAGATCTATA [CACACA_site3407],7.54 ± 0.54
4,ATTTATGAAAAGTAAAGTACACACAGGAAAAAAAAA [XGTACX_site3564],8.44 ± 0.74
5,CCAATGAGGATATATACACACATACATTAAAAAAAT [CACACA_site5090],7.79 ± 0.61
6,ATATATATGTATGTATGTACTTATTTATTTATTTAT [XGTACX_site7740],7.76 ± 0.44
7,TAAGAAAAAGGCACACGTACATAATTCAAAATAAAT [XGTACX_site982],8.12 ± 0.22
8,TTTTTTTTCACACATTGTACTTTTTTATAAAATATA [XGTACX_site4351],8.15 ± 0.61
9,ATTTAAATAATATGTACACACATTTAAAAAATTATA [CACACA_site2816],8.02 ± 0.085
10,ATAAAATAAATAAATATAAATATATATATATATATA [TGCATGCA_negctrl_site358],9.26 ± 0.46
11,TATACATATTTACAAGTGCATAATATTTTACAAAAA,10.4 ± 0.52
12,GTTATAACTCAAATATGTACATATTATAAAACATAT [XGTACX_site6693],7.92 ± 0.47
13,AAAAAAAAAAAAAAAGGTACACAAATACGTCCTGCA [XGTACX_site3354],8.9 ± 0.57
14,TTATAGAACTATATTGCACACATAATATATATATAT [CACACA_site9042],10.3 ± 0.46
15,TATAAAAATAAGCACACACACAAATATATATTTATT [CACACA_site922],8.12 ± 0.25
16,TAATTATAATAAAAAGGTACAGAAAAGTTATACTCA [XGTACX_site6111],7.67 ± 0.44
17,AATTATCAAAGTCTATACATACATACATACATACAT [GTGCAC_negctrl_site243],8.55 ± 0.61
18,TATAAATAATAAAGATGTACTTTTTATGATTCCTAC [XGTACX_site7003],8 ± 0.31
19,TATAAAAAGCAAAACAAAAAAACAAATTGAAAAATT [TGCATGCA_negctrl_site158],7.61 ± 0.91
20,TTACTACTATATTATACACACATATATTTATTTATA [CACACA_site7274],8.06 ± 0.56
21,CCGTAGTTTTAAAATAGTACTTTTATGGTTAATAAA [XGTACX_site3162],7.9 ± 0.35
22,TTTTTTATTTTTTTATTGTTTTATTGTTTCATTGTT [XGTACX_negctrl_site128],7.58 ± 0.63
